In PubChem BioAssay AID651820 (National Center for Advancing Translational Sciences (NCATS), 2012):
Out of some 340,000 compounds screened, about 12,000 (3.5%) were called active. The inconclusive results got no clear call from the source; some entries with a clear call stand among them for comparison. Calls come from the whole dose curve; as a rule, active = well fitted inhibition curve with a large enough effect; inconclusive = small, poorly fitted or top-dose-only effect, or another doubt; inactive = no such curve, though single readings can be large or run the other way. Potencies of inconclusive entries are left out as doubtful fits.

Assay: qHTS Assay for Inhibitors of Hepatitis C Virus (HCV)
Conditions: Huh7.5.1 HCVcc-Cre (HCVcc is cell-culture hepatitis C virus) infection, luciferase reporter, 44 h; activity change, negative = inhibition: at 41.8 µM (top of the series)
Method in brief: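 1,000 cells/well; 4 h culture; + compound; + HCVcc-Cre (~0.5 moi); 44 h; luciferase substrate, RT 15 min; read 15 sec.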
% is set by controls: 0 for no effect and ±100 for the full control effect; potency is the fitted concentration of half-maximal effect; tags give direction and shape of the fitted curve.

SMILES	Potency	activity change, negative = inhibition
NC(=S)N=Nc1c(O)[nH]c2ccc(F)cc12	inactive	–
C=CCn1c(SCC(=O)c2ccc(O)c(O)c2)nnc1-c1ccc(OC)cc1	inconclusive [inhibitor, single point]	–
Cc1cc(C)c2c3c(cn2n1)c(=O)n(C)c(=O)n3C	inconclusive [inhibitor, single point]	–
CC(OC(=O)CCCN=C1NS(=O)(=O)c2ccccc21)C(=O)NC1CCCCC1C (centres undefined)	inactive	–
COc1ccc(CN2CCN(CC3CC3)CC2CCO)cc1C (centres undefined)	inactive	–
Cc1cccc(NC(=O)c2ccc(S(=O)(=O)N(C)C)cc2)c1	inconclusive [inhibitor, single point]	–
Cc1nc2ccc([N+](=O)[O-])cc2c(=O)n1Cc1cccc(F)c1	inconclusive [inhibitor, single point]	–
CC(CCc1ccccc1)NC(=O)C(Cc1ccccc1)NC(N)=O (centres undefined)	inactive	–
CC(C)(CC(=O)O)CC(=O)Nc1cc(C(F)(F)F)cc(C(F)(F)F)c1	inactive	–
CCCNS(=O)(=O)c1cc2c3c(c1)C(C)C(=O)N3CCC2 (centres undefined)	inactive	–
COc1cccc(N2C(=O)CC(N3CCN(S(=O)(=O)c4ccccc4[N+](=O)[O-])CC3)C2=O)c1 (centres undefined)	inactive	–
COc1ccc(COC(=O)c2cccc(S(=O)(=O)N3CCCC3)c2)cc1F	inconclusive [inhibitor, single point]	–
O=C(CSc1nc(-c2cccs2)cc(C(F)(F)F)n1)NCc1ccco1	inconclusive [inhibitor, partial curve, poor fit]	–
Cc1ccc(-c2csc(N(CCCN(C)C)C(=O)c3ccco3)n2)cc1	inconclusive [inhibitor, single point]	–
CCCC(C)C1(CC)C(=O)NC(=Nc2ccc(OC)cc2)NC1=O (centres undefined)	inconclusive [inhibitor, single point]	–
Cc1ccc(C(=O)N(c2ccccc2)C2CC(C)N(C(=O)c3ccco3)c3ccccc32)cc1 (centres undefined)	active: 11.2 µM	–
COc1nc(C)ccc1-c1noc(-c2cccs2)n1	inconclusive [inhibitor, single point]	–
c1ccc(C2Nc3ccccc3C3OCCCC23)cc1 (centres undefined)	inactive	–
CCOC(=O)c1c(C)oc2c1c(C(c1ccccc1)N1CCOCC1)c(O)c1ccccc12 (centres undefined)	inconclusive [inhibitor, partial curve]	–
Cc1cc(C)c(C#N)c(SCC(=O)N(C)C2CCCCC2)n1	inconclusive [inhibitor, partial curve]	–
O=[N+]([O-])c1ccc2c(c1)C(=NO)c1cc(F)ccc1-2	inconclusive [inhibitor, partial curve]	–
Cc1ccc(OCC(=O)NNC(=O)c2ccccc2OCc2c(C)noc2C)cc1	inconclusive [inhibitor, partial curve]	–
COc1ccc2c(=O)c(C(=O)NCc3ccccc3)c[nH]c2c1	inactive	–
O=C(NCc1cc(C(F)(F)F)ccc1Cl)c1cccc2c1C(=O)c1ccc(Cl)cc1S2(=O)=O	inactive	–
COc1cccc(CN2CCN(C(=O)Nc3ccc([N+](=O)[O-])cc3)CC2)c1	inconclusive [inhibitor, single point]	–

SMILES	Potency	activity change, negative = inhibition
CCOC(=O)/C(C#N)=C1/C=C(C)NC(c2ccccc2O)=N1	inconclusive [inhibitor, single point]	–
CC(C)CCNC(=O)c1sc2ccc(S(=O)(=O)N3CCCCC3)cc2c1N	inconclusive [inhibitor, single point]	–
COc1cc(/C=N/N2C(=O)C3C4C=CC(CC4)C3C2=O)ccc1O (centres undefined)	inactive	–
O=C(/C=C/c1ccc(Cl)c([N+](=O)[O-])c1)Nc1ccc(NC(=O)c2ccco2)cc1	inactive	–
CNC(=O)c1ccc(-c2ccc(OC)cc2)s1	inconclusive [inhibitor, single point]	–
c1ccc(COc2ncnc3c2ncn3CCCNCCN2CCOCC2)cc1	inactive	–
Cc1ccc(NC(=O)Nc2ccc3oc(C)nc3c2)cc1	inconclusive [inhibitor, full curve]	–
O=C(Nc1ncccn1)c1ccc([N+](=O)[O-])cc1[N+](=O)[O-]	inactive	–
CC(=O)c1ccc(NC(=O)N2CCCC(C(=O)c3ccc4c(c3)OCO4)C2)cc1 (centres undefined)	inconclusive [inhibitor, single point]	–
CC(C)Nc1nnc(SC(C)C(=O)N(C)C2CCCCC2)s1 (centres undefined)	–	inconclusive: -89.9% [inhibitor]
CCCn1nc(NC(=O)COC)c2cc3cc(C)ccc3nc21	inconclusive [inhibitor, single point]	–
O=C(COc1ccc(F)c(Cl)c1)c1ccc[nH]1	inactive	–
COc1cc(/C=N/NC(=O)c2ccc(-n3cccc3)cc2)ccc1O	inconclusive [inhibitor, partial curve]	–
COc1ccc(NC(C)C(=O)N/N=C/c2ccc([N+](=O)[O-])s2)cc1 (centres undefined)	inconclusive [inhibitor, single point]	–
CC1CC(C)(C)NC(=S)N1CCC(=O)Nc1ccc2c(c1)OCCO2 (centres undefined)	inconclusive [inhibitor, single point]	–
CCCCOc1ccc(CSC(CC(=O)O)C(=O)O)cc1 (centres undefined)	inconclusive [inhibitor, full curve]	–
CCn1cc([N+](=O)[O-])c(C(=O)N2N=C(c3ccc4ccccc4c3)CC2c2cc(Br)ccc2O)n1 (centres undefined)	inconclusive [inhibitor, single point]	–
CSc1ccc(/C=N/N(C)S(=O)(=O)c2ccc(C)cc2)cc1	inconclusive [inhibitor, single point]	–
CN(C)c1nc(Cl)cc(N2CCOCC2)n1	inconclusive [inhibitor, full curve, poor fit]	–
Cc1cc2n(n1)C(c1ccsc1)Nc1ccccc1-2 (centres undefined)	inconclusive [inhibitor, partial curve]	–
CCCCN(C1CCS(=O)(=O)C1)S(=O)(=O)c1ccc(OC)c(OC)c1 (centres undefined)	inactive	–
CC(C)(C)c1ccc(-n2ncc3c2CCCC3NC(=O)CN2CCCCC2=O)cc1 (centres undefined)	inconclusive [inhibitor, single point]	–
COc1cccc(C(=O)Nc2nnc(-c3ccccc3)s2)c1	inactive	–
CCOc1ccc(S(=O)(=O)N2CCN(C(=O)c3ccc(-n4cncn4)c([N+](=O)[O-])c3)CC2)cc1	active: 11.2 µM	–
Cc1ccc(N2CC(C(=O)Nc3cc(C(F)(F)F)ccc3N3CCCC3)CC2=O)cc1 (centres undefined)	inconclusive [inhibitor, single point]	–

SMILES	Potency	activity change, negative = inhibition
O=C(Nc1ccc(Br)cn1)C1CCN(S(=O)(=O)c2cccs2)CC1	inconclusive [inhibitor, full curve]	–
CC1CCCCN1S(=O)(=O)c1ccc(C(=O)N(CCCN(C)C)c2nc3ccc(Br)cc3s2)cc1 (centres undefined)	inconclusive [inhibitor, partial curve]	–
O=C(Nc1ccc(CN2CCOCC2)cc1)c1ccc(-c2cccc([N+](=O)[O-])c2)o1	active: 31.6 µM	–
O=C(COC(=O)c1c2c(nc3ccccc13)CCCCC2)NCc1ccc2c(c1)OCO2	inconclusive [inhibitor, full curve]	–
C=CCOc1ccc(/C(O)=C2/C(=O)C(=O)N(CCCn3ccnc3)C2c2ccco2)cc1 (centres undefined)	inactive	–
Oc1c(C(Nc2ccccn2)c2cccnc2)cc(Cl)c2cccnc12 (centres undefined)	inconclusive [inhibitor, single point]	–
COc1cccc(CNc2ccccc2O)c1OCc1ccccc1F	inactive	–
CCN(CC)C(=O)CSc1nnc(CCCCCNC(=O)OC(C)(C)C)o1	inactive	–
CC(CCc1ccccc1)NC(=O)c1ccc(NC(=O)c2ccc(Cl)cc2Cl)cc1 (centres undefined)	inactive	–
COc1cc(NC(=S)NCCC(c2ccccc2)c2ccccc2)cc(OC)c1	active: 22.4 µM	–
O=C(O)C(Cc1ccccc1)N1C(=O)/C(=C/c2cccs2)SC1=S (centres undefined)	inactive	–
CC1CCCN(CCC(=O)Nc2ccc(Br)cc2)C1 (centres undefined)	inconclusive [inhibitor, partial curve]	–
O=C(Nc1ccccc1)OCc1cnc(Cl)s1	inactive	–
Cc1cccc(C2c3[nH]c4ccccc4c3CCN2C(=O)c2cc(-c3cccn3C)n[nH]2)n1 (centres undefined)	inconclusive [inhibitor, single point]	–
CN1CCN(S(=O)(=O)c2cccc(C(=O)Nc3nc(-c4ccccc4)cs3)c2)CC1	inconclusive [inhibitor, partial curve, poor fit]	–
COc1cc(OC)cc(C(=O)NC(C(=O)Nc2ccc3c(c2)OCCO3)C(C)C)c1 (centres undefined)	inconclusive [inhibitor, single point]	–
Cc1ccc(NC(=O)COc2cccc3c2OC(C)(C)C3)c(O)c1	inconclusive [inhibitor, partial curve]	–
COc1ccc(S(=O)(=O)N(CC(=O)NC2CCCC2)c2ccccc2OC)cc1	inactive	–
Cc1c(C(=O)Nc2ccc(-c3nnc4n3CCCCC4)cc2)oc2ccc(Br)cc12	active: 11.2 µM	–
CCOC(=O)C1=C(NC(=S)NC(=O)c2ccccc2)c2ccccc2CC12CCCC2	inconclusive [inhibitor, single point]	–
c1ccc(CCNC2=NCCS2)cc1	inactive	–
O=C(CCn1nnc2ccccc21)OCC(=O)c1ccc(F)cc1	inactive	–
O=C1O[C@@H]([C@H](O)CO)C(O)=C1O	inactive	–
COc1ccc2nc(NC(=O)c3cccnc3SC)sc2c1	inconclusive [inhibitor, full curve, poor fit]	–
